Read counts are not given, so values of variants with three or more changes are uncertain.
B1: CPEB3 Ribozyme (parent)
chain: UAACAGGGGGCCACAGCAGAAGCGUUCACGUCGCAGCCCCUGUCAGAUUCUGGUGAAUCUGCGAAUUCUGCUGUAUAUCUC

Variants of: B1
Assay: self-cleavage, relative activity (ratio to wild type); higher = more cleavage; in vitro, sequencing
How it was run: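 After error-prone PCR and barcoding, CPEB3 ribozyme mutant libraries were transcribed with T7 RNA polymerase at 37°C for 5 hours, then given 15 min with DNase I before an EDTA stop, and they cleaved during both steps. Reverse transcription with template switching preceded Illumina sequencing. Relative activity divides a variant's cleaved/total read fraction by the unmutated ribozyme's. At least 5 reads were required per variant, and three batches were averaged.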

Variant | self-cleavage
A13G A18U A47G U54C U58C C71A | 0.13
A13G A15G U41A A47U A64U | 0.1
A13G G24A C29U A35U A57G G61A A65G | 0.06
A13C U51C U54C | 1.07
A13G G24A U25A A47U | 0.2
A13G A35G U43C U72C | 0.35
A13G C14A A15U U43C A45G | 0.14
A13G A28U A47G | 0.55
A13G A28G G42A A47U | 0.06
A13G A21U U31C G42A A57G | 0.24
A13G G22C U49A A64U | 0.05
A13G G22A A64G | 0.18
A13G A21G A45G G73U U74C U78C | 0.23
A13G G19U A56G | 0.21
A13G A18U U26A C29A U41C U48G | 0.06
A13G C17G U41C G61A | 0.21
A13G G24A A35G A45U U48C G73U | 0.07
A13G A18G U41A | 0.24
A13G A45U U74C A75U A77G | 0.36
A13G A20G C39G U43A U51A | 0.25
A13G A47G U72G A77G U78C | 0.27
A13G A21G U31A | 0.51
A13G A18U A35G | 0.23
A13C U60C G61C G63U | 0.23

Variant | self-cleavage
A13G A18G U58C | 0.26
A13G A35G G42A | 0.06
A13G G22C U58A | 0.18
A13G A20G U43C A75U | 0.36
A13G A18U A20C A28G A35U U41C | 0.21
A13G C14U C38U U49C | 0.09
A13G A45G U69A U74A | 0.27
A13G A35G U58C U78A | 0.23
A13G A15U U66C | 0.26
A13G C40A U41C A56G U66C U69C | 0.04
A13G A45U U69C A77U C79A | 0.29
A13G A20U A28G C34U U67C | 0.1
A13G A20G U66C | 0.38
A13G A15C C40U U41A G61A A64G | 0
A13G A18G U25C | 0.19
A13G A28U G52C U72C U76C | 0.59
A13G A45U A47U | 0.19
A13G A15G A18U U41A C59U U67C U69C | 0.04
A13G A15C C17A U41A G42A U76C | 0.24
A13G A15U G30C U31A U41G A56G C62G | 0.04
A13G G22A U26A | 0.25
A13G G24A C32A A65G U66C | 0.07
A13G A20G U51C U72A | 0.28
A13G G19A U25C U69C | 0.05

Variant | self-cleavage
A13G A18U A28G A56G A57G U74A | 0.06
A13G A20G A28U U43C A75U | 0.28
A13G C17U A21G U25C G33A U41A U67C | 0.03
A13G C40A U43A U51G | 0.19
A13G C14U U58A | 0.32
A13G A20G G33A G36A U74A | 0.06
A13G A21G U25C A28C | 0.38
A13G A56U U67C | 0.16
A13G A15G A20G U41A | 0.41
A13G A20G U26A U80C | 0.48
A13G A28G C40G G52A | 0.1
A13G G16U U25C U41A A45G | 0.2
A13G A47G U58C | 0.81
A13G A56U G70A C71A | 0.16
A13G A65G A77U U78C | 0.27
A13G A21C C34U U58C | 0.06
A13G A15G A20G A35U U60G U72A U76C | 0.05
A13G A20G U26C A35G A47U U58C U78C | 0
A13G C23U U78C | 0.15
A13G C27U A56G U80C | 0.55
A13G A20G U26G | 0.35
A13G A20G U26A | 0.43
A13G A28U A35G A45C U76A | 0.13
A13G A20G C37U A56G U60C A65C | 0.09

Variant | self-cleavage
A13G G19A A28G U43C U48C U67C U76A | 0.02
A13G A20G A56G | 0.61
A13G G24A U43C A65G U66A U67C | 0.04
A13G A45U U72A | 0.2
A13C U51A A64G A75U | 0.79
A13G A21G U26G U51C | 0.04
A13G A20C A28G | 0.5
A13G A35G U41C G63A U69C | 0.15
A13G A20G C40A U48C U49C | 0.4
A13G C14U G22C | 0.31
A13G A15U A28U | 0.28
A13G A20U U60C | 0.47
A13G A20U U78A | 0.27
A13G C40G U58C | 0.07
A13G C32U U54C | 0.08
A13G A18G U67C U72G | 0.02
A13G A35U A56G U72C | 0.64
A13G A21G A64C | 0.09
A13G A21G A64G | 0.24
A13G C37A A56G | 0.17
A13G A21G U49C U51A | 0.21
A13G A15G A45G U60C A65U | 0.24
A13G A35G G46A U76A | 0.19
A13G A57G U69C U72A U80C | 0.25

Variant | self-cleavage
A13G A35G G36C A64G | 0.23
A13G A64U U72C | 0.19
A13G A20G U26C U80C | 0.58
A13G A15G A18C C44U U51C U67C | 0.26
A13G A18U A56U A64G U67C U76C U80C | 0.35
A13G A35G U41G U76C | 0.22
A13G C39U A45U | 0.18
A13G G19U U76C | 0.23
A13G A47U G52A | 0.4
A13G A45G U76C | 0.67
A13G A28G U60A U66C | 0.1
A13G A35G A64U | 0.27
A13G A35G A64G | 0.53
A13G A20U G42U G55C | 0.05
A13G A20U U51A U67C | 0.12
A13G C14U A28G U72C | 0.3
A13G A35G U58C U67C | 0.12
A13G C23G A28U G63A U69G U74C | 0.32
A13G A35G U49A U54A U76C U78C | 0.45
A13G A45G U78C | 0.54
A13G A47G U48G | 0.18
A13G A35G A45C U49C | 0.06
A13G A21G G52A A56G U72A | 0.24
A13G A65G U76A | 0.34

Variant | self-cleavage
A13G A21G C39A | 0.32
A13G A64G U67G | 0.15
A13G A28C A35U U43C U48C G61U U67A | 0.08
A13G A18U A56G | 0.24
A13G A18C U74C U76G | 0.14
A13G A15G G30A | 0.41
A13G A35G A65U U69C U80A | 0.16
A13G A45U A56U U80C | 0.16
A13G A21U U25C | 0.09
A13G A20G C37U U60C A65C | 0.16
A13G A21U U41A A65G U78A | 0.06
A13G A18G A45G U54A U67C U72C | 0.21
A13G C37A U41C U51A | 0.3
A13G C34U U51G | 0.14
A13G A45G U66C | 0.28
A13G A35G U49C U69G | 0.48
A13G A15U U31C A56C U60C | 0.14
A13G A28G U43G U72A U74G A75G | 0.06
A13G A21G U25C G52A U69C U72A | 0.14
A13G G16A U69C U72A | 0.09
A13G C17A A28U U31C U60C | 0.05
A13G C23G A28G U41C U58C U74C | 0.1
A13G A35G A56U | 0.45
A13G A15U U26A A28G U49C A65G U67C | 0.13

Variant | self-cleavage
A13G A18U U69A U74A | 1.15
A13G A45C A56G U66C U69C | 0.22
A13G G19U A20U U43C | 0.07
A13G A18U A28G U41A U54A A56U | 0.22
A13C U48C U72C | 0.5
A13G A18G A20G C62U | 0.13
A13G A21G A45U U80C | 0.15
A13G A35U A57G U67C U80C | 0.1
A13G A45G U49G | 0.18
A13G C37G U72A U76A | 0.14
A13G A15U U41A U69C | 0.28
A13G C17G A45G A47G | 0.27
A13G A18U U54A A56U U76A | 0.16
A13G C38U U49C | 0.15
A13G G22C A47U A64G | 0.13
A13G A28G A45U U58C | 0.2
A13G C37A G42U A45U U72A | 0.33
A13G C34G A45U U72C | 0.12
A13G A20G U41A U69C U80C | 0.2
A13G A21U A45G | 0.24
A13G A28G U67C A77G U80C | 0.08
A13G A18G U41C U51C | 0.43
A13G A18G A45U U58C | 0.11

— the RNAGym collection of RNA variant scans (doi:10.1093/nar/gkz1192)
